Where “and” joins values, the source holds several entries; their conditions need not be identical. Identical values can stand only once. Counter-ions that a name gives are not always drawn. ± gives the standard deviation of the averaged measurements. Whole data set: some 2,600 compounds, median “MBP+ mature oligodendrocyte number relative to DMSO vehicle control” near -0.34, cut for the highest 2% near 13. This is one part of the list.
These compounds were tested on jimpy (Plp1 jimpy) mouse iPSC-derived oligodendrocyte progenitor cells (assay: MBP+ mature oligodendrocyte number relative to DMSO vehicle control (SDs above negative control mean); higher = more surviving jimpy oligodendrocytes (rescue)). Settings: 10 µM; 3 days.
Procedure: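 Primary phenotypic screen of >3,000 bioactive compounds (Selleck L1700 and Sigma LO1280 libraries) at a single dose of 10 µM. Compounds were added to jimpy (Plp1 mutant) mouse iPSC-derived OPCs at the start of thyroid hormone-induced oligodendrocyte differentiation, one well per compound in 384-well plates. After 3 days cells were stained for MBP, Sox10 and DAPI and imaged with an Operetta system. MBP+ oligodendrocyte number and total cell number were expressed as the number of SDs above the mean of the DMSO negative control on the same plate (n=16 control wells per plate). Hits were defined as >=4 SD for oligodendrocytes and >=2 SD for total cells.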

SMILES	MBP+ mature oligodendrocyte number
COc1ccc(C(=O)Nc2sc3c(c2C(N)=O)CCCC3)cc1OC	0.753
O=NO [Sodium Nitrite]	3.11
N[C@@H](Cn1ccc(=O)c(O)c1)C(=O)O [L-Mimosine from Koa hoale seeds]	-0.747
COc1cc(Nc2ncc(F)c(Nc3ccc4c(n3)NC(=O)C(C)(C)O4)n2)cc(OC)c1OC	-3.63
COc1cc(Nc2ncc(F)c(Nc3ccc4c(n3)NC(=O)C(C)(C)O4)n2)cc(OC)c1OC [R406 (free base)]	-4.7
CC(C)(Oc1ccc(Cl)cc1)C(=O)O [Clofibric Acid]	2.94
CC(=O)[C@@]1(O)CC[C@H]2[C@@H]3CCC4=CC(=O)CCC4=C3[C@@H](c3ccc(N(C)C)cc3)C[C@@]21C [Ulipristal]	-1.01
COc1cc2ncc(-c3ccccc3)nc2cc1OC [Tyrphostin AG 1296]	0.992
CS(=O)(=O)c1cccc(CNc2nc(Nc3ccc4c(c3)CCC(=O)N4)ncc2C(F)(F)F)c1	-4.54 ± 0.86
CCCCCCCCCCC[C@@H](C[C@@H]1OC(=O)[C@H]1CCCCCC)OC(=O)[C@H](CC(C)C)NC=O [Orlistat]	0.163
CC1(C)CCC(CN2CCN(c3ccc(C(=O)NS(=O)(=O)c4ccc(NCC5CCOCC5)c([N+](=O)[O-])c4)c(Oc4cnc5[nH]ccc5c4)c3)CC2)=C(c2ccc(Cl)cc2)C1	-2.66
S=C(Nc1ccccc1)Nc1nccs1 [1-Phenyl-3-(2-thiazolyl)-2-thiourea]	-1.26
COCCOc1cc2nc[nH]c(=O)c2cc1OCCOC	-1.06
CSc1ccc(C(=O)c2[nH]c(=O)[nH]c2C)cc1 [Enoximone]	0.659
COc1ccc(-c2ccc(=N)n(CCCC(=O)O)n2)cc1	0.896
COc1cc(OC)c(C(=O)CCCN2CCCC2)c(OC)c1 [Buflomedil HCl]	10.4
CC(=O)NCCc1c[nH]c2ccc(O)cc12 [N-Acetyl-5-hydroxytryptamine]	-0.511
N#CC(c1ccc(Cl)cc1)c1c(Cl)cc(-n2ncc(=O)[nH]c2=O)cc1Cl (configuration not stated) [Diclazuril]	0.973
O=c1ccc2ccc(O)c(O)c2o1 [Daphnetin]	0.283 ± 0.24
CC(C)(C)C(=O)OCOP(=O)(COCCn1cnc2c(N)ncnc21)OCOC(=O)C(C)(C)C [Adefovir Dipivoxil]	< -5.15
Nc1nc(N)c2nc(-c3cccc(O)c3)cnc2n1	-5.77

SMILES	MBP+ mature oligodendrocyte number
COc1ccccc1N1CCN(CC(O)COc2cccc3ccccc23)CC1 (configuration not stated) [Naftopidil]	2.07
COc1ccccc1N1CCN(CC(O)COc2cccc3ccccc23)CC1 (configuration not stated) [Naftopidil DiHCl]	5.87
COc1ccccc1N1CCN(CC(O)COc2cccc3ccccc23)CC1 (configuration not stated) [Naftopidil dihydrochloride]	-0.127
CN1CCC(=C2c3ccccc3CC(=O)c3sccc32)CC1 [Ketotifen Fumarate]	-2.27
CN1CCC(=C2c3ccccc3CC(=O)c3sccc32)CC1 [Ketotifen fumarate]	-2.95
O=C(O)CC[C@H]1CC[C@@](c2cc(F)ccc2F)(S(=O)(=O)c2ccc(Cl)cc2)CC1	3.68
CCCN(CCC)C(=O)C(CCC(=O)O)NC(=O)c1ccccc1 (configuration not stated) [Proglumide]	-0.402
CN1CCc2ccccc2Cc2[nH]c3ccccc3c2CC1	0.539
CC(C)(Sc1cc(C(C)(C)C)c(O)c(C(C)(C)C)c1)Sc1cc(C(C)(C)C)c(O)c(C(C)(C)C)c1 [Probucol]	-4.58
Nc1ccc(-c2nc3ccc(-c4nc5ccc(N)cc5[nH]4)cc3[nH]2)cc1	-1.97
C=CC(=O)Nc1cccc(Nc2nc(Nc3ccc(N4CCN(C(C)=O)CC4)cc3OC)ncc2C(F)(F)F)c1	-6.1
CS(=O)(=O)CCNCc1ccc(-c2ccc3ncnc(Nc4ccc(OCc5cccc(F)c5)c(Cl)c4)c3c2)o1	-6.52
Nc1c(Br)cc(Br)cc1CN[C@H]1CC[C@H](O)CC1 [Ambroxol HCl]	3.91
Cn1ccnc1S [Methimazole]	-0.107
O=c1cc(-c2ccc(O)c(O)c2)oc2cc(O)cc(O)c12 [Luteolin]	-4.47
CC(=O)Nc1ccc(NC(=S)NC(=O)c2ccc(C(C)(C)C)cc2)cc1 [Tenovin-1]	2.25
NCCCCNCCCN [Spermidine trihydrochloride]	-0.104
Nc1ncn([C@H]2C[C@H](O)[C@@H](CO)O2)c(=O)n1 [Decitabine]	-1.2
O=C(Cc1ccc(-c2ccc(OCCN3CCOCC3)cc2)cn1)NCc1ccccc1	-5.77
N[C@H](CO)C(=O)O [D-Serine]	-0.461
O=C1Cc2cc(CCN3CCN(c4nsc5ccccc45)CC3)c(Cl)cc2N1 [Ziprasidone hydrochloride monohydrate]	11.7

SMILES	MBP+ mature oligodendrocyte number
O=C1Cc2cc(CCN3CCN(c4nsc5ccccc45)CC3)c(Cl)cc2N1 [Ziprasidone HCl]	21.9
CC(C)/N=c1\cc2n(-c3ccc(Cl)cc3)c3ccccc3nc-2cc1Nc1ccc(Cl)cc1 [Clofazimine]	-4.15
CO[C@@]1(NC(=O)CSCC#N)C(=O)N2C(C(=O)O)=C(CSc3nnnn3C)CS[C@@H]21 [Cefmetazole sodium]	0.0385
C[C@@H]1[C@H](O)[C@@H](C)/C=C/C=C/C=C/C=C/C=C/C=C/C=C/[C@H](O[C@@H]2O[C@H](C)[C@@H](O)[C@H](N)[C@@H]2O)C[C@@H]2O[C@](O)(C[C@@H](O)C[C@@H](O)[C@H](O)CC[C@@H](O)C[C@@H](O)CC(=O)O[C@H]1C)C[C@H](O)[C@H]2C(=O)O [Amphotericin B]	1.78
CCOC(=O)C(C)(C)Oc1ccc(Cl)cc1 [Clofibrate]	0.667
O=c1cc(N2CCOCC2)oc2c1ccc1ccccc12	-1.96
c1cnc2c(c1)ccc1cccnc12 [1,10-Phenanthroline monohydrate]	< -3.85
CC(C)NC[C@H](O)COc1ccc(CC(N)=O)cc1 [S(-)-Atenolol]	-0.236
Cc1cc(Nc2ccc(NC(=O)c3ccc(Nc4ccnc5ccccc45)cc3)cc2)nc(N)n1	< -6.35
CCC(NC(C)C)C(O)c1ccc(O)c(O)c1 (configuration not stated) [Isotharine mesylate]	-1.23
CN1C2=CC(=O)/C(=N\NC(N)=O)C=C2CC1S(=O)(=O)O (configuration not stated) [Carbazochrome sodium sulfonate (AC-17)]	3.28
CNC(CC(=O)O)C(=O)O [NMDA (N-Methyl-D-aspartic acid)]	1.84
C[C@H](NC(=O)Cc1cc(F)cc(F)c1)C(=O)N[C@H](C(=O)OC(C)(C)C)c1ccccc1	1.79
CN1CCc2cccc3c2[C@H]1Cc1ccc(O)c(O)c1-3 [Apomorphine hydrochloride hemihydrate]	-2.99
CC(C)N(CCCNC(=O)Nc1ccc(C(C)(C)C)cc1)C[C@H]1O[C@@H](n2ccc3c(N)ncnc32)[C@H](O)[C@@H]1O	-3.9 and -3.23
C[C@H](NC(=O)[C@@H](O)c1cc(F)cc(F)c1)C(=O)N[C@@H]1C(=O)N(C)c2ccccc2-c2ccccc21	2.56
Cc1c(Cc2ccc3ccccc3n2)c2cc(F)ccc2n1CC(=O)O	3.44
CO[C@@H](C(=O)N1Cc2[nH]nc(NC(=O)c3ccc(N4CCN(C)CC4)cc3)c2C1)c1ccccc1	-6.61
CN1CCN(C2=Nc3cc(Cl)ccc3Nc3ccccc32)CC1 [Clozapine]	-2.03 ± 1.1
C=CC[C@H](N)C(=O)O [L-allylglycine]	-1.69
Brc1ccc([C@H]2CN3CCSC3=N2)cc1 [S(-)-p-Bromotetramisole oxalate]	-0.119

SMILES	MBP+ mature oligodendrocyte number
O=C(O)c1ccccc1Nc1ccccc1 [N-Phenylanthranilic acid]	-0.197
CC1CCc2c(N3CCC(O)CC3)c(F)cc3c(=O)c(C(=O)O)cn1c23 (configuration not stated) [Nadifloxacin]	1.22
Clc1ccc(COC(Cn2ccnc2)c2ccc(Cl)cc2Cl)c(Cl)c1 (configuration not stated) [Miconazole]	-1.9
Clc1ccc(COC(Cn2ccnc2)c2ccc(Cl)cc2Cl)c(Cl)c1 (configuration not stated) [Miconazole Nitrate]	-3.62
NCC=CC(=O)O (stereo in doubt) [cis-4-Aminocrotonic acid]	0.431
Cc1cc(=O)n(-c2ccccc2)n1C [Antipyrine]	-0.0546
CC(=O)[C@H]1CC[C@H]2[C@@H]3CC=C4C[C@@H](OS(=O)(=O)O)CC[C@]4(C)[C@H]3CC[C@]12C [Pregnenolone sulfate sodium]	0.467
NC12CC3CC(CC(C3)C1)C2 [Amantadine hydrochloride]	-0.276
NC12CC3CC(CC(C3)C1)C2 [Amantadine HCl]	0.451
N#C/C(=C\c1ccc(O)c(O)c1)C(=O)c1ccc(O)c(O)c1 [Tyrphostin AG 538]	-0.247
CO[C@H]1O[C@@H]2O[C@@]3(C)CC[C@H]4[C@H](C)CC[C@@H]([C@H]1C)[C@@]24OO3 [Artemether]	-1.19 ± 0.13
O=c1c2ccccc2oc2ccccc12 [Xanthone]	2.35
CC1(C2CCCC2)Cc2cc(OCC(=O)O)c(Cl)c(Cl)c2C1=O (configuration not stated)	-0.559
CN(C)[C@@H]1C(O)=C(C(N)=O)C(=O)[C@@]2(O)C(O)=C3C(=O)c4c(O)ccc(Cl)c4[C@@H](O)[C@H]3C[C@@H]12 [Demeclocycline hydrochloride]	-0.701
O=C(O)CC1CC(c2ccccc2)=NO1 (configuration not stated)	3.45
Cn1c([N+](=O)[O-])cnc1COC(N)=O [Ronidazole]	3.87
CCN(c1cc(-c2ccc(CN3CCOCC3)cc2)cc(C(=O)NCc2c(C)cc(C)[nH]c2=O)c1C)C1CCOCC1	8.01
N[C@@H](C(=O)N[C@@H]1C(=O)N2C(C(=O)O)=C(Cl)CS[C@H]12)c1ccccc1 [Cefaclor]	0.0385
CC(C)NC[C@H](O)c1ccc(O)c(O)c1 [R(-)-Isoproterenol (+)-bitartrate]	-1.28
